The values below come from article PMC10348673 (2023).

The test has as its target RIT1 A57G (17 to 197) (UniProt Q92963 in part, A57G). In words: ITC.

B1: BRAF-RBD ([…]) (domain or fragment)
chain: not shown
B1 gave a Kd of 8.11 µM.
